Assay results reported in PubChem BioAssay AID588795 (National Center for Advancing Translational Sciences (NCATS), 2011).
In all, about 390,000 compounds went through this assay and about 1,400 (0.36%) were called active. Inconclusive means that the source gave no clear call. Such entries were picked first, then a sample of the others. Calls follow the shape of the dose curve; as a rule, active = well fitted inhibition curve with a large enough effect; inconclusive = small, poorly fitted or top-dose-only effect; inactive = no such curve, though single readings can be large or run the other way. A potency beside an inconclusive call is a rough fit, not a confirmed value. Where a structure was tested more than once in an assay, its records may differ in their call. Bridge positions count the residues as written; N and C are the ends. Square brackets hold non-standard residues; d marks the D form. Peptide text beside a SMILES is read from it. * marks the point of attachment. X1 = CCC(C)C(N)C1=NC(C(=O)*)CS1; dOrn = NCCC[C@@H](N)C(=O)O

biological target: Flap endonuclease 1 (Homo sapiens) (UniProt P39748); assay: qHTS Assay for the Inhibitors of Human Flap endonuclease 1 (FEN1).; also: nearly all actives have a fitted effect of over 65% in size; conditions: Recombinant FEN1 flap cleavage, fluorescence, 15 min; series mostly up to 114 µM; activity change, negative = inhibition: at the top concentration
Method in brief: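 FEN1 at 10 nM, compound pretreatment for 15 min (room temperature), 50 nM final substrate to initiate; endpoint reads at 0 and 15 min; DMSO-only plates used as vehicle background.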
% is scaled to controls: 0 for no effect and ±100 for the full control effect; potency is read from the fitted curve at half-maximal effect; tags tell the direction and shape of the fitted curve.

Sequence of UniProt P39748 (P39748 whole entry, looked up): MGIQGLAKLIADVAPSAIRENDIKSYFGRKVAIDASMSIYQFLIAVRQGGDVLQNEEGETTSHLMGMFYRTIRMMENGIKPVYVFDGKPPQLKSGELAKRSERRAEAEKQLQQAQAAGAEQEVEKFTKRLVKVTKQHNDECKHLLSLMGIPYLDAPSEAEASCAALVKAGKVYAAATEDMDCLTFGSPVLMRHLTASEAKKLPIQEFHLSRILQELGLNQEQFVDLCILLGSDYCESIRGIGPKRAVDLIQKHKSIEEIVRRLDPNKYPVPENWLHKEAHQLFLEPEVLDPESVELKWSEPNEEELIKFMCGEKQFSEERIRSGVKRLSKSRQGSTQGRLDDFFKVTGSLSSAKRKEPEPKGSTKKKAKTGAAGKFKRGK

Q: With CCCC/C(O)=C1\C(=O)CC(C)(C)CC1=Nc1ccc(OC)cc1 as the compound, how does the Potency read?
A: inconclusive: 89.1 µM [inhibitor, partial curve, poor fit]

Q: Oc1c(Cl)cc(Cl)c2c1NCCC2 was tested. Which Potency did it give?
A: inconclusive: 25.1 µM [inhibitor, partial curve, poor fit]

Q: Which Potency does the source give for Cc1cc(C)cc(NC(=O)c2ccc3c(O)c(S(=O)(=O)c4ccccc4)c(=O)[nH]c3c2)c1 here?
A: inconclusive: 17.8 µM [inhibitor, partial curve, poor fit]

Q: How did the “activity change, negative = inhibition” value turn out when CCc1cc2c(SCc3ccc(C(=O)OC)o3)ncnc2s1 was run?
A: inactive: -2.11%

Q: O=C(O)c1ccc(N/N=C/c2cc3c(cc2[N+](=O)[O-])OCO3)cc1 was tested. Which Potency did it give?
A: inconclusive: 56.2 µM [inhibitor, partial curve, poor fit]

Q: COc1cc2c(C#N)c(N3CCCCC3)nc(N)c2c(N)n1 was tested. Which Potency did it give?
A: inconclusive: 89.1 µM [inhibitor, partial curve, poor fit]

Q: For CCOC(=O)C1(CC2CC2)CCN(Cc2cnc(-c3ccc(OC)cc3)nc2)CC1, which Potency is on record?
A: inconclusive: 50.1 µM [inhibitor, partial curve, poor fit]

Q: CCOc1ccc(NC(=O)CCC(=O)NNC(=O)COc2ccc(C)cc2Br)cc1 was tested. Which “activity change, negative = inhibition” value did it give?
A: inactive: -6.17%

Q: With Cc1cc(C(F)(F)F)nc(SCc2ccc(C(=O)O)o2)n1 as the compound, how does the “activity change, negative = inhibition” value read?
A: inactive: -3.29%

Q: With Cc1ccc(Nc2cc(C)nc(-c3ccccc3O)n2)cc1 as the compound, how does the Potency read?
A: inconclusive: 79.4 µM [inhibitor, partial curve, poor fit]

Q: COc1ccc(/C=C2\Oc3ccccc3C2=O)cc1 was tested. Which Potency did it give?
A: inconclusive: 50.1 µM [inhibitor, partial curve, poor fit]

Q: With COC(=O)c1c(-c2ccc(Cl)cc2)noc1N1CCN(c2cccc(OC)c2)CC1 as the compound, how does the “activity change, negative = inhibition” value read?
A: inactive: -11.2%

Q: CCCCOC(=O)c1ccc(NC(=O)CSc2nc3c(c(=O)[nH]2)CCC3)cc1 was tested. Which “activity change, negative = inhibition” value did it give?
A: inactive: 9.63%

Q: COc1cc2c(cc1NC(=O)CSc1ccccc1)oc1ccccc12 was tested. Which Potency did it give?
A: inconclusive: 20 µM [inhibitor, partial curve, poor fit]

Q: How did the “activity change, negative = inhibition” value turn out when Cc1oc2ncn(CC(C)C)c(=O)c2c1C(=O)NCCCN1CCCCC1C (stereo not drawn) was run?
A: inactive: -0.0234%

Q: For CCC(C)C(N)C1=NC(C(=O)N[C@@H](CC(C)C)C(=O)N[C@H](CCC(=O)[O-])C(=O)N[C@H](C(=O)N[C@H]2CCCCNC(=O)[C@H](CC(N)=O)NC(=O)[C@@H](CC(=O)[O-])NC(=O)[C@H](Cc3cnc[nH]3)NC(=O)[C@@H](Cc3ccccc3)NC(=O)[C@H]([C@@H](C)CC)NC(=O)[C@@H](CCCN)NC2=O)[C@@H](C)CC)CS1.[Zn+2] (stereo partly drawn) (X1-L[dE]IK[dOrn]I[dF]H[dD]N; lactam 4-C), which Potency is on record?
A: active: 8.91 µM

Q: For COc1ccc(-c2nnc(SCC(=O)NCCc3ccccc3)nc2-c2ccc(OC)cc2)cc1, which “activity change, negative = inhibition” value is on record?
A: inactive: 8.38%

Q: With CCSc1nnc(NC(=O)C2CCCCC2)s1 as the compound, how does the “activity change, negative = inhibition” value read?
A: inactive: -1.59%

Q: With Oc1ccccc1C=NN=Cc1c(O)ccc2ccccc12 as the compound, how does the “activity change, negative = inhibition” value read?
A: inactive: -3.86%

Q: For O=C(Nc1ccc(OC(F)(F)F)cc1)C(NS(=O)(=O)c1cccc2nsnc12)c1ccccc1 (stereo not drawn), which Potency is on record?
A: inconclusive: 20 µM [inhibitor, partial curve, poor fit]

Q: How did the Potency turn out when CC1CN(Cc2c(O)ccc3c2oc(=O)c2ccccc23)CC(C)O1 (stereo not drawn) was run?
A: inconclusive: 79.4 µM [inhibitor, partial curve, poor fit]

Q: Which Potency does the source give for CC1CCCN(C(=O)c2ccc3c(c2NCCO)C(=O)c2ccccc2C3=O)C1 (stereo not drawn) here?
A: inconclusive: 89.1 µM [inhibitor, partial curve, poor fit]

Q: Which Potency does the source give for COc1ccc(C(=O)Nc2ccc3nc(N4CCCCC4)cc(C)c3c2)cc1OC here?
A: inconclusive: 25.1 µM [inhibitor, partial curve, poor fit]

Q: With Cc1ccc(/C=N/NC(=O)c2cccc(S(=O)(=O)Nc3ccccc3Cl)c2)o1 as the compound, how does the “activity change, negative = inhibition” value read?
A: inactive: -16.2%

Q: With Cc1cccc(C)c1OCC(=O)Nc1nc(-c2ccc(Br)cc2)ns1 as the compound, how does the “activity change, negative = inhibition” value read?
A: inactive: 13.2%

Q: For O=C(N/N=C/c1c[nH]c2ccccc12)c1cc2ccccc2o1, which Potency is on record?
A: inconclusive: 79.4 µM [inhibitor, partial curve, poor fit]

Q: How did the Potency turn out when COC(=O)c1ccc(COc2ccc(/C=N/Nc3nc(C)cc(=O)[nH]3)cc2)cc1 was run?
A: inconclusive: 89.1 µM [inhibitor, single point]

Q: How did the Potency turn out when COCCCn1c(=O)/c(=C\c2ccccc2OC(C)C)s/c1=C(/C#N)C(=O)Nc1ccc(C(=O)O)cc1 was run?
A: inconclusive: 89.1 µM [inhibitor, partial curve, poor fit]

Q: With COc1ccc(S(=O)(=O)n2nc(OC(C)=O)cc2N(C(C)=O)C(C)=O)cc1 as the compound, how does the Potency read?
A: inconclusive: 44.7 µM [inhibitor, partial curve, poor fit]

Q: For c1cncc(-c2nn3c(Cn4nnc5ccccc54)nnc3s2)c1, which “activity change, negative = inhibition” value is on record?
A: inactive: -3.4%

Q: How did the Potency turn out when C/C(=N\NC(=O)c1nnn(-c2nonc2N)c1-c1ccc2c(c1)OCO2)c1ccc(C)cc1 was run?
A: inconclusive: 89.1 µM [inhibitor, single point]

Q: Which Potency does the source give for CCn1cc(CCCC(=O)NCc2ccc(OC)cc2)c2ccccc21 here?
A: inconclusive: 50.1 µM [inhibitor, partial curve, poor fit]

Q: How did the Potency turn out when CCCCCCSc1cccc(-c2nc3ccc(C)cn3c2NC2CCCCC2)c1 was run?
A: inconclusive: 79.4 µM [inhibitor, partial curve, poor fit]

Q: With COc1ccc(CNC(=O)/C(C#N)=C2\N=C(NC(=O)c3cccs3)c3ccccc32)cc1 as the compound, how does the Potency read?
A: inconclusive: 28.2 µM [inhibitor, partial curve, poor fit]

Q: For COc1ccc(-c2nnc(C3CCN(C(=O)c4ccccc4F)CC3)o2)cc1, which “activity change, negative = inhibition” value is on record?
A: inactive: -10.6%

Q: With Nc1cccc(-c2cn3cccnc3n2)c1 as the compound, how does the “activity change, negative = inhibition” value read?
A: inactive: 1.2%

Q: With CC(C)(C)c1ccc(OCc2nc(-c3ccccn3)no2)c(Br)c1 as the compound, how does the Potency read?
A: inconclusive: 89.1 µM [inhibitor, partial curve, poor fit]

Q: CCc1c(C)sc2nc3c(C(=O)N4CCOCC4)cc(C(=O)c4ccccc4O)cn3c(=O)c12 was tested. Which “activity change, negative = inhibition” value did it give?
A: inactive: 4.21%

Q: With COc1ccc(/C=N/Nc2cc(C)nc3ccccc23)cc1 as the compound, how does the Potency read?
A: active: 39.8 µM

Q: With Cc1ccc2nc3sc(C(=O)Nc4c(C)[nH]c(=O)[nH]c4=O)c(N)c3cc2c1 as the compound, how does the Potency read?
A: inconclusive: 44.7 µM [inhibitor, partial curve, poor fit]

Q: For Cn1c(NCCO)nc2c1c(=O)n(Cc1ccccc1Cl)c(=O)n2C, which “activity change, negative = inhibition” value is on record?
A: inactive: -8.63%

Q: With CCn1c(CSc2nnc(-c3ccncc3)n2CCOC)nc2cc(C(=O)O)ccc21 as the compound, how does the Potency read?
A: inconclusive: 22.4 µM [inhibitor, partial curve, poor fit]

Q: CCOC(=O)c1cccc(Nc2c3c(nc4ccccc24)CCC3)c1 was tested. Which Potency did it give?
A: inconclusive: 79.4 µM [inhibitor, partial curve, poor fit]

Q: For Cc1cccc(NC(=O)c2c(NC(=O)C(F)(F)F)sc3c2CCCCC3)c1, which Potency is on record?
A: inconclusive: 79.4 µM [inhibitor, partial curve]

Q: With O=C(O)c1ccc(N/N=C/C=C/c2ccc([N+](=O)[O-])o2)cc1 as the compound, how does the Potency read?
A: inconclusive: 79.4 µM [inhibitor, partial curve]

Q: CC1=NN(c2ccc(Cl)c(C(=O)O)c2)C(=O)/C1=C/c1ccc(-c2ccccc2[N+](=O)[O-])o1 was tested. Which Potency did it give?
A: active: 28.2 µM

Q: O=C(Nc1ccccc1Br)C1CCCN(S(=O)(=O)c2cccc3nsnc23)C1 (stereo not drawn) was tested. Which “activity change, negative = inhibition” value did it give?
A: inactive: -17.1%

Q: For Cc1nc(Nc2nc3c(c(=O)[nH]2)CCC3)nc2ccccc12, which Potency is on record?
A: inconclusive: 89.1 µM [inhibitor, single point]

Q: How did the Potency turn out when CCOc1cc(/C=N/N=C2/NC(=O)C(CC(=O)O)S2)ccc1OCc1ccc(Cl)cc1Cl (stereo not drawn) was run?
A: inconclusive: 50.1 µM [inhibitor, partial curve]

Q: How did the “activity change, negative = inhibition” value turn out when C/C=C\C=C\C(=O)N1CC2(CC(c3cccc(NC(=O)CC(c4ccccc4)c4ccccc4)c3)=NO2)C[C@H]1C(N)=O (stereo partly drawn) was run?
A: inactive: -1.09%

Q: CC(=O)Nc1ccc(NC(=O)c2cc(S(=O)(=O)N3CCCCC3)ccc2C)cc1 was tested. Which “activity change, negative = inhibition” value did it give?
A: inactive: -11.1%

Q: Which “activity change, negative = inhibition” value does the source give for COc1cc(NS(=O)(=O)c2ccc(NC(=S)NC(=O)c3sc4ccccc4c3Cl)cc2)nc(OC)n1 here?
A: inactive: -4.86%

Q: For COC(=O)Cn1c(=NC(=O)c2ccc(OC)cc2)sc2cc(OC)ccc21, which “activity change, negative = inhibition” value is on record?
A: inactive: -2.48%

Q: For Cc1cccc(N2CCN(S(=O)(=O)c3ccc4c(c3)CCN4C(=O)CCC(=O)O)CC2C)c1 (stereo not drawn), which Potency is on record?
A: inconclusive: 35.5 µM [inhibitor, full curve]

Q: How did the Potency turn out when CCC(Sc1nc2ccsc2c(=O)n1Cc1ccc(C(=O)O)cc1)C(=O)Nc1ccc(C)c(Cl)c1 (stereo not drawn) was run?
A: inconclusive: 70.8 µM [inhibitor, single point]

Q: O=C(O)c1ccc2c(c1)C(=O)N(c1ccc(OCc3ccccc3)cc1)C2=O was tested. Which Potency did it give?
A: inconclusive: 89.1 µM [inhibitor, single point]

Q: O=C(NCc1ccccc1)c1sc(=S)n2c1[nH]c(=O)c1ccccc12 was tested. Which Potency did it give?
A: inconclusive: 89.1 µM [inhibitor, single point]

Q: How did the Potency turn out when CCOC(=O)c1cnc2ccc(OC)cc2c1NCCc1ccccc1 was run?
A: inconclusive: 39.8 µM [inhibitor, partial curve, poor fit]

Q: For COc1cc(Cl)c(C)cc1NC(=O)CSc1nnc(-c2ccco2)n1CC(C)C, which Potency is on record?
A: inconclusive: 56.2 µM [inhibitor, partial curve, poor fit]

Q: For O=C(NCc1ccco1)c1ccc(COc2ccccc2Cl)cc1, which Potency is on record?
A: inconclusive: 56.2 µM [inhibitor, partial curve, poor fit]

Q: Which Potency does the source give for O=C(CN1C(=O)/C(=C2/SC(=S)N(CCS(=O)(=O)O)C2=O)c2ccccc21)Nc1cccc(Br)c1 here?
A: inconclusive: 50.1 µM [inhibitor, partial curve, poor fit]

Q: How did the “activity change, negative = inhibition” value turn out when COc1ccc2c(c1)CCc1c(C(=O)Nc3ccc(F)c(Cl)c3)noc1-2 was run?
A: inactive: 5.28%

Q: For Cc1oc2c(cc(NS(=O)(=O)c3ccc(Cl)cc3)c3ccccc32)c1C(=O)O, which “activity change, negative = inhibition” value is on record?
A: inactive: -20.4%
